The chains are these.
B1: LINE1-full (parent)
chain: UACGUAGGUGGUUUUCCCCUGAUAGUGCUAAGGGGGCCUGGAAGUUUGGACUGGGCAGAGCUCAACACAGCGUGGCAAAGUGGCUGUGGCUAGACUGCCUCUCUGGAUUCCUCGUCACUCAGCAGGGCAUCUCUGAGAGAAAUGCC

The source gives no read counts; variants with many changes may rest on few reads.

In this data set the parent is B1. Kind of data set: self-cleavage, relative activity (ratio to wild type); higher = more cleavage; in vitro, sequencing; the parent is a self-cleaving ribozyme.
On to UACGUAGGUGGUUUUCCCCUGAUAGUGCUAAGGGGGCCUGGAAGUUCGGACUGGGCAGAGCUCAACACAGCGUGGCAAAGUGGCCGUGGCUAGACUGCCUCUCUGGAUUCCUUGUCACUCAGCAGGGCAUCUCUGAGAGAAAUGCC [U47C U85C C113U], for which the self-cleavage came to 0.09.

Regarding UACGUAGGUGGUUUUCCCCUGAUAGUGCUAAGGGGGCCUGGAAGUUCGGACUGGGCAGAGCUCAACACAGCGCGGCAAAGUGGCUGUGGCUAGACUGCCUCUCUGGAUUCAUCGUCACUCAGCAGGGCAUCCCUGAGAGAAAUGCC [U47C U73C C111A U132C], the self-cleavage came to 1.77.

Take UACGUAGGUGGUUUUCCCCUGAUAGUGCUAAGGGGGCCUGGAAGUUCGGACUGGGCAGAGCUCAACACAGCGAGGCAAAGUGGCUGUGGCUAGACUGCCUCUCUGGAUUCCUCGUCACUCAGCAGGGCAUCUCAGAGAGAGAAGCC [U47C U73A U134A A141G U143A]: the self-cleavage turned out to be 2.25.

Regarding UACGUAGGUGGUUUUCCCCUGAUAGUGCUAAGGGGGCCUGGAAGUUCGGACUGGGCAGAGCUCAACACAGCGUGGCAAAGUGGCUGUGGCUAGACUGCCUCUCUGGAUUCCCCGUCACUCUGCAGGGCAUCUCUGAGAGAAAUGCC [U47C U112C A121U], the self-cleavage was 2.07.

On to UACGUAGGUGGUUUUCCCCUGAUAGUGCUAAGGGGGCCUGGAAGUUCGGACUGGGCAGAGCUCAACACAGCGUGGCAAAGUGGCUGUGGCUAGACCGCCUCUCUGGAUACCUCGUCACCCUGCAGGGCAUCUCUGAGAGAAAUGCC [U47C U96C U109A U119C A121U], for which the self-cleavage turned out to be 0.

For UACGUAGGUGGUUUUCCCCUGAUAGUGCUAAGGGGGCCUGGAAGUUCGGACUGGGCAGAGCUCAACACAGCGUGGCAAAGUGGCCGUGGCUAGACUGCCUCUCUGGAUACCUCGUCACUCAGCAGGGCAUCUCUGAGAGAAAUGCC [U47C U85C U109A], the self-cleavage was determined as 0.7.

UACGUAGGUGGUUUUCCCCUGAUAGUGCUAAGGGGGCCUGGAAGUUGGGACUGGGCAGGGCUCAACACAGCGUGGCAAAGUGGCUGCGGCUAGACAGCCUCUCUGGAUUCCUCGUCACUCAGCAGGGCAUCUCUGAGAGAAAUGCC [U47G A59G U87C U96A]: the self-cleavage amounted to 0.

With UACGUAGGUGGUUUUCCCCUGAUAGUGCUAAGGGGGCCUGGAAGUUCGGACUGGGCAGAGCUCAACACAGCGUGGCAAAGUGGCAGUGGCUAGACUGCCUCUCUGGAUUCCUCGCCACUCAGCAGGGCAUCUCUGAGAGAAAUGCC [U47C U85A U115C], the self-cleavage stood at 0.13.

Turning to UACGUAGGUGGUUUUCCCCUGAUAGUGCUAAGGGGGCCUGGAAGUUCGGACUGGGCAGAGCCCAACACAGUGUGGCAAAGUGGCUGUGGCUAGACUGCCUCUCUGGAUUCCUCGUCACUCAGCAGGGCAUCUCUGAGAGGAAUGCC [U47C U62C C71U A140G], the self-cleavage was 0.02.

In the case of UACGUAGGUGGUUUUCCCCUGAUAGUGCUAAGGGGGCCUGGAAGUUCGGACUGGGCAGAGCCCUACACAGCGAGGCAAAGUGGCUGUGGCUAGACUGCCUCUCUGGAUUCCUCGUCACUCAGCAGGGCAUCUCUGAGAGAAAUGCC [U47C U62C A64U U73A], the self-cleavage is 0.03.

With UACGUAGGUGGUUUUCCCCUGAUAGUGCUAAGGGGGCCUGGAAGUUCGGACUGGGCAGAGCUCAACACAGCGUGGCAAAGUGGCUGUGGCUAGACUGCCUCUCCGGAUUCCUCGUCACUCAGCAGGGCAUCUCUGUGAGAAAUGCC [U47C U104C A136U], the self-cleavage turned out to be 1.67.

In the case of UACGUAGGUGGUUUUCCCCUGAUAGUGCUAAGGGGGCCUGGAAGUUCGGACUGGGCAGAGCUCAACACAGCGUGGCAAAGUGGCCGUGGCUAGACUGCCUCUCUGGAUUCCUCGUCACUCAGCUGGGCAUCUCUGAGAGAAAUGCC [U47C U85C A124U], the self-cleavage was 0.81.

For UACGUAGGUGGUUUUCCCCUGAUAGUGCUAAGGGGGCCUGGAAGUUCGGACUGGGCAGAGCUCAACACAGCGUGGCAAAGUGGCUGUGGCUAGACAGCCUCUCUGGCUUCCUCGUCACUCAGCAGGGCAUCUCUGAGAGAAAUGCC [U47C U96A A107C], the self-cleavage was 0.21.

As to UACGUAGGUGGUUUUCCCCUGAUAGUGCUAAGGGGGCCUGGAAGUUCGGACUGGGCAGAGCUCAACACAGCGUGGCAAAGUGGCUGCGGCUAGACUGCCUCUCUGGAUUCCUCGUCACUCAGCAGGGCACCUCUGAGAGAAAUGCC [U47C U87C U130C], the self-cleavage came out at 0.

On to UACGUAGGUGGUUUUCCCCUGAUAGUGCUAAGGGGGCCUGGAAGUUCGGACUGGGCAGAGCUCAACACAGCGUGGCAAAGUGGCUGUGGCUAGACUGCCUCUCUGGAUUCCUCGUCACUCAGCAGGGCACCUCUGAGAGAAAUACC [U47C U130C G144A], for which the self-cleavage was found to be 2.01.

Consider UACGUAGGUGGUUUUCCCCUGAUAGUGCUAAGGGGGCCUGGAAGUUCGGACUGGGCAGAGCUCAACACAGCGUGGCAAAGUGGCUGUGGCUAGACUGCCCCUCUGGAUUCCUCGUCACUCAGCAGGGCAUCUCUGUGAGAAAUGCC [U47C U100C A136U], for which the self-cleavage was 0.

On to UACGUAGGUGGUUUUCCCCUGAUAGUGCUAAGGGGGCCUGGAAGUUCGGACUGGGCAGAGCCCAACACAGCGUGGCAAAGUGGCUGUGGCUAGACUGCCUCUCUGGAUUCCUCGUCACUCAGCAGGGCUUCUCUGAGAGAAAUGCC [U47C U62C A129U], for which the self-cleavage was found to be 0.04.

Regarding UACGUAGGUGGUUUUCCCCUGAUAGUGCUAAGGGGGCCUGGAAGUUCGGACUGGGCAGAGCCCAACACAGCGUGGCAAAGUGGCUGAGGCUAGACUGCCUCUCUGGAUUCCUCGUCACUCAGCAGGGCAUCUCUGAGAGAAAUGCC [U47C U62C U87A], the self-cleavage came out at 0.06.

Turning to UACGUAGGUGGUUUUCCCCUGAUAGUGCUAAGGGGGCCUGGAAGUUCGGACUGGGCAGAGCUCAACACAGCGUGGCAAAGUGGCUGUGGCUAGACUGCCUCUCUGGAUUCCUCGCCACCCAGCAGGGCAUCUCUGAGAGAAAUGCC [U47C U115C U119C], the self-cleavage was 0.

Regarding UACGUAGGUGGUUUUCCCCUGAUAGUGCUAAGGGGGCCUGGAAGUUCGGACUGGGCAGAGCUCAACACAGCGUGGCAAAGAGGCUGUGGCUGGACUGCCUCUCUGGAUUCCUCGUCACUCAGCAGGGCACCUCUGAGAGAAAUGCC [U47C U81A A92G U130C], the self-cleavage was determined as 0.
